From US20190248885A1, “Neuronal and Oligodendrocyte Survival Modulation” (The Board of Trustees of the Leland Stanford Junior …, priority 2016, published 2019)

Assays:
[1] = tested on: retinal ganglion cells (RGCs); test: Survival/cell toxicity assay, RGCs; format: cell-based, rat; conditions: for prevention of A1 ACM-induced RGC death: RGCs treated with A1 ACM plus blocker; for toxicity to RGCs of ACM from astrocytes treated individually with the cytokine: viability at 24 h, not as great as full A1 ACM
purified astrocytes = test: Reactive astrocyte transcript induction in purified cultured astrocytes (microfluidic qPCR); conditions: for marker expression profile compared with in vivo A1 reactive astrocytes: in vitro treatment, FIG. 6; for A1 genes induced / induction of A1 reactive astrocyte transcripts/phenotype: purified astrocytes, serum-free culture; for A1 genes induced: single cytokine; for induction of A1 reactive astrocyte transcripts/phenotype: microfluidic qPCR
[2] = tested on: cells in purified cultures; test: Direct cytokine toxicity in purified cultures; format: cell-based; conditions: data not shown
astrocytes = test: Astrocyte reactivity after systemic LPS injection (microfluidic qPCR); format: in vivo, mouse; conditions: for A1 reactive astrocyte response: systemic LPS injection
astrocytes in the LGN = test: In vivo synapse engulfment assay; parameters: species or system mouse; conditions: compared to saline-treated control animals
RGCs = test: Optic nerve crush in mice; format: in vivo, mouse; conditions: PLX-3397 containing chow versus control chow

Molecule: NS(=O)(=O)c1cccc2c1c([N+](=O)[O-])cc1nc(O)c(O)nc12 [NBQX]
- prevention of A1 ACM-induced RGC death [1]: ineffective

Molecule: NC(CCCP(=O)(O)O)C(=O)O [D-APS]
- prevention of A1 ACM-induced RGC death [1]: ineffective

Molecule: tumor necrosis factor alpha [TNFα]
- marker expression profile compared with in vivo A1 reactive astrocytes (purified astrocytes): less characteristic
- A1 genes induced (purified astrocytes): about 25%
- toxicity to RGCs of ACM from astrocytes treated individually with the cytokine [1]: toxic
- death of cells caused directly by the cytokines [2]: did not cause death of cells in purified cultures

Molecule: lipopolysaccharide [LPS]
- A1 reactivity of astrocytes in the LGN (astrocytes; P3 mice, systemic LPS, 24 hours later): strongly polarized to an A1 reactive phenotype
- A1 reactive astrocyte response (astrocytes; Csf1r−/− mice lacking microglia): failed to activate to an A1 phenotype
- A1 reactive astrocyte response (astrocytes; wild type littermate controls): robust induction of an A1 reactive astrocyte response
- induction of A1 reactive astrocyte transcripts/phenotype (purified astrocytes): they do not
- loss of synaptic engulfment ability (astrocytes in the LGN): around 50%

Molecule: COC(=O)C[C@H](NC(=O)[C@H](C)NC(=O)[C@@H](NC(=O)OCc1ccccc1)C(C)C)C(=O)CF [Z-VAD-FMK] (Cbz-Val-Ala-Asp(OMe)-CH2F)
- prevention of A1 ACM-induced RGC death [1]: able to protect

Molecule: CN1C(=O)C(Cc2c[nH]c3ccccc23)NC1=S (stereo not drawn) [Necrostatin]
- prevention of A1 ACM-induced RGC death [1]: did not preserve RGC viability
- prevention of A1 ACM-induced RGC death ([1]; listed as necrostatin): could not be prevented

Molecule: N[C@@H](Cn1ccc(=O)n(Cc2ccccc2C(=O)O)c1=O)C(=O)O [UBP-296]
- prevention of A1 ACM-induced RGC death [1]: ineffective

Molecule: macrophage-activating lipopeptide-2 [Malp2, reference compound]
- induction of A1 reactive astrocyte transcripts/phenotype (purified astrocytes): they do not

Molecule: FC(F)(F)c1ccc(CNc2ccc(Cc3c[nH]c4ncc(Cl)cc34)cn2)cn1 [PLX-3397]
- number of RGCs in ONC mice (RGCs): no significant difference

B1: interleukin 1 alpha (protein, UniProt P01583 113-271, looked up)
Interleukin-1 alpha: SAPFSFLSNVKYNFMRIIKYEFILNDALNQSIIRANDQYLTAAALHNLDEAVKFDMGAYKSSKDDAKITVILRISKTQLYVTAQDEDQPVLLKEMPEIPKTITGSETNLLFFWETHGTKNYFTSVAHPNLFIATKQDYWVCLAGGPPSITDFQILENQA
- marker expression profile compared with in vivo A1 reactive astrocytes (purified astrocytes): less characteristic
- A1 genes induced (purified astrocytes): about 70%
- toxicity to RGCs of ACM from astrocytes treated individually with the cytokine [1]: toxic
- death of cells caused directly by the cytokines [2]: did not cause death of cells in purified cultures

Where a SMILES comes first, the peptide text is derived from it. The star is where a group is joined. Cbz = O=C(OCc1ccccc1)*; CH2F = FC*
